The structures appear in SMILES notation. In all, about 13,000 compounds were measured (“IFI”: median about 4, highest 2% from about 17 on). Some of the results follow.

The test can be described thus: GSK_TCMDC: Inhibition Frequency Index (IFI). The number of non-kinase HTS assays where a compound showed > 50 % inhibition, expressed as a percentage of the number of such assays in which the compound was tested (-0 is zero). The test is classed as functional.
Turning to `C[C@@H](CNc1ccnc(Nc2ccc3[nH]c(=O)[nH]c3c2)n1)c1ccccc1`, the IFI amounted to 3.23%. Under `CCCOc1ccc(C=C(CC(=O)O)c2nc3ccccc3s2)cc1OCC` stands 6%; under `CN1CCC(c2c[nH]c3ccc(NC(=O)Nc4ccc(-c5ccncc5)c(Cl)c4Cl)cc23)CC1`, 3.68%.

Consider `O=c1ccc2ncc(Cl)c3c2n1CC3CN1CCC(NCc2cc3c(cn2)OCCO3)CC1` (stereo unspecified), for which the IFI was found to be 1.4%. Under `O=C1CSc2ccc(CNC3CCN(CCc4c(Cl)cnc5ccc(F)cc45)CC3)nc2N1` stands 2.34%; under `Cc1cc(N[C@@H](CC(C)C)C(=O)NCc2cccs2)nc(Nc2ccccc2)n1`, 7.32%; under `CCCc1cc(OC)c(C[C@@H]2c3cc(O)c(Cl)cc3CCN2C)cc1OC`, 0.74%. The same measure for `N#Cc1ccc(N2CCN(Cc3ccc(-c4ccc(-c5nc6cc(C(F)(F)F)ccc6[nH]5)s4)cc3)CC2)nc1`: 4.85%; for `CCN(CC)CC#Cc1ccc2[nH]c(C)c(Cl)c(=O)c2c1`: 3.67%; for `Cc1cc(CN2CCCC(OC(c3ccc(F)cc3)c3ccc(F)cc3)C2)ccc1O` (stereo unspecified): 5.19%.

The compound `O=C(Nc1ccc(I)cc1)N1CCc2sccc2C1CN1CCCCC1` (stereo unspecified) displayed an IFI of 2.47%.

As to `NC1CCCN(Cc2ccc(-c3ccc(-c4nc5cc(F)ccc5[nH]4)s3)cc2)C1` (stereo unspecified), the IFI amounted to 8.45%. `NC1=NC(c2ccccc2)N(OCc2ccccc2)C(N)=N1` (stereo unspecified) gave an IFI of -0%. Consider `Cn1c(NC2CCN(CC3CCN(C(=O)/C=C/c4ccc(Cl)c(Cl)c4)CC3)CC2)nc2ccccc21`, for which the IFI was determined as 10.4%. The same measure for `O=C(Nc1ccc(-c2nc3ccccc3[nH]2)cc1)c1cnc(Cl)c(Cl)c1`: 1.47%; for `CC(C)Nc1cc(C(=O)N[C@@H](Cc2ccccc2)[C@H](O)CNC2CCCCC2)cc(N2CCCCS2(=O)=O)c1`: 2.14%.

`Cc1cccc2nc(-c3ccc(-c4cccc(NC(=O)Nc5cccc(C#N)c5)c4)cc3)[nH]c12` had an IFI of 4.04%. Consider `COc1ccc(NC(=O)N2CCCN(CCCCCNC(=O)/C=C/c3ccc(Cl)cc3)CC2)cc1Cl`, for which the IFI was 6%.

`Nc1cccc(-c2ccc3ccnc(N)c3c2)c1` had an IFI of 5.56%.

The compound `Cc1ccc(NS(=O)(=O)c2ccc(C(C)N3CCC(N4CCCCC4)CC3)cc2)cc1C` (stereo unspecified) showed an IFI of 10.1%. On to `Nc1cccc(CNCc2ccc(-c3ccc(-c4nc5ccccc5[nH]4)s3)cc2)c1`, for which the IFI was determined as 8.57%. On to `CC[C@H](C)CNC(=O)c1ccnc(-c2cccc(CN3CCC(N4CCCC4)CC3)c2)c1`, for which the IFI was found to be 1.61%. On to `CS(=O)(=O)c1ccc(-c2cc(C(F)(F)F)nc(N[C@@H]3CCCC[C@H]3OCc3ccccc3)n2)cc1`, for which the IFI turned out to be 1.5%. `CC(=O)Nc1ncc(C(=O)Nc2cccc(-c3ccc(-c4nc5cccc(C)c5[nH]4)cc3)c2)s1`: the IFI is 6.48%. The compound `Cc1cccc2nc(-c3ccc(-c4ccc(CN5CCCCC5CO)cc4)cc3)[nH]c12` (stereo unspecified) had an IFI of 5.56%. Take `COc1c(C2CCN(CCCCNC(=O)c3ccc(-c4ccc(C#N)cc4)nc3)CC2)ccc2c1CCCC2`: the IFI came to 12.2%.

The compound `CCOc1ccc2c(=NN=Cc3ccccc3F)cc(C)[nH]c2c1` returned an IFI of 1.43%. Consider `N=C(N)NCCCN(Cc1ccccc1)c1ccccc1`, for which the IFI came out at 5.97%. Under `CC(C)NCc1cccc(-c2cccc(NC(=O)c3ccc(C#N)cc3)c2)c1` stands 3.88%; under `COc1ccc(CNC(=O)c2cnc3c(O)cccc3c2Nc2cccc(NC(=O)c3ccc(-c4ccccc4)cc3)c2)cc1`, 5.93%; under `Cc1ccc(-n2cc(CNCC3CCN(CCO)CC3)c(-c3ccc(F)cc3)n2)cc1`, 11.4%. Take `Cc1cnc2ccc(NS(=O)(=O)c3ccc4c(Cl)cccc4c3)cc2c1N1CCNCC1`: the IFI came to 1.42%. The same measure for `O=C(CSc1cccc[n+]1[O-])c1ccc(Cc2ncc(C(F)(F)F)cc2Cl)s1`: 0.74%. Under `O=C(NC1CCN(Cc2ccccc2)CC1)c1cccc(-c2nc3ccc(Cl)cc3[nH]2)c1` stands 0.75%; under `O=C(Nc1ccc(C(=O)N2CCN(CCN3CCN(c4cccc(C(F)(F)F)c4)CC3)CC2)cc1)c1cc(Cl)cc(Cl)c1`, 1.74%; under `COc1cc2nc(Nc3ccc(Oc4ccccc4)cc3)nc(Nc3ccc(Oc4ccccc4)cc3)c2cc1OC`, 3.65%.

`CC(C)(C)OC(=O)Nc1cccc(-c2csc(NC(=N)N)n2)c1`: the IFI worked out at 4.08%. The compound `CCOc1ccc2nc3cc(NC(=O)c4ccco4)ccc3c(N)c2c1` displayed an IFI of 20.5%. The same measure for `CC(=O)Nc1nc(C)c(-c2csc(Nc3ccc(Cl)cc3)n2)s1`: 4.41%; for `NC1=NC(CCc2ccccc2)N(c2ccccc2)C(N)=N1` (stereo unspecified): 2.22%; for `Cc1cccc2nc(-c3ccc(-c4cccc(CNCc5ccccc5)c4)s3)[nH]c12`: 4.81%. `CNCCNCc1ccc(-c2cccc(-c3nc4cc(C(F)(F)F)ccc4[nH]3)c2)cc1` displayed an IFI of 4.95%. The same measure for `COc1ccc2nccc([C@@H](O)CN3CCC(NCc4cc5cccc(OCc6ccccc6)c5[nH]4)CC3)c2c1`: 13%. Turning to `NS(=O)(=O)c1ccc(CNc2ccc3ncc(-c4ccc(Cl)cc4)n3n2)cc1`, the IFI was 3.82%. Under `Fc1ccc2c(NN=CC=Cc3ccccc3)ccnc2c1` stands 0.77%; under `O=C(NC1CCCC1)c1ccc(N2CCC(NCc3cc4cc(Cl)ccc4[nH]3)CC2)cc1`, 9.76%; under `CN1CCC(Oc2ccc(CN3CC[C@H](NC(=O)c4ccc(Cl)c(Cl)c4)C3)c3ccccc23)C1` (stereo partly specified), 11.9%. Under `CC(C)(C)c1ccc(Cc2cccc3nc(N)nc(N)c23)cc1` stands 7.5%.

As to `Cn1ccnc1CCC(=O)Nc1ccc(Cl)cc1C(=O)Nc1ccc(Cl)cc1`, the IFI was determined as 0%.

`NC(=O)c1cc(-c2ccccc2)cc2c(C3CCC(NCc4ccccc4)C3)c[nH]c12` (stereo unspecified) gave an IFI of 10.6%. The same measure for `Cc1ccc(C2CC(c3cccs3)=NN2C(=O)c2ccc(Br)o2)cc1` (stereo unspecified): 4.17%. `COc1ccc(-c2ccc(NC(=O)c3ccc(Cl)cc3)cc2)cc1CN1CCN(C)CC1` yielded an IFI of 4.95%. On to `COc1ccc(C(=O)COc2cccc(/C=C/C(=O)O)c2)cc1OC`, for which the IFI was 0.7%. Under `CCNC(C)(C)CN(Cc1ccc(-c2ccc(C(F)(F)F)cc2)cc1)C(=O)Cn1c(SCc2ccc(F)cc2)nc(=O)c2c1CCC2` stands 14.8%. Regarding `COc1ccc([N+](=O)[O-])cc1N(Cc1ccccc1-c1ccccc1)S(=O)(=O)c1ccc(C(F)(F)F)cc1[N+](=O)[O-]`, the IFI came out at 2.16%.

As for `c1ccc(CNCc2cccc(-c3cccc(-c4nc5ccccc5[nH]4)c3)c2)cc1`, the IFI was determined as 5.83%. For `COc1ccc(-c2cccc(NC(=O)c3ccc(C#N)cc3)c2)cc1CNC(C)C`, the IFI is 3.96%.

In turn, `O=C(Nc1ccc(OC2CCN(Cc3ccc(F)cc3)CC2)c(Cl)c1)c1ccc(F)cc1` gave an IFI of 11.3%. Under `N=c1n(CCN2CCCC2)c2ccccc2n1CC(O)c1ccc(Cl)c(Cl)c1` (stereo unspecified) stands 5.8%; under `Cc1cccc(C(=O)Nc2ccnc(N3CCC(N(C)Cc4ccccc4)CC3)c2)c1`, 0%. `CC(Cc1ccc(C(=O)OC(c2ccccc2)c2ccccc2)cc1)NCC(O)c1ccccc1` (stereo unspecified) registered an IFI of 15.5%. Turning to `COc1ccccc1C(=O)C1CCCN(C(=O)c2ccccc2C(F)(F)F)C1` (stereo unspecified), the IFI came out at 0%. With `COc1cc2nc(C)nc(Nc3ccc4c(ccn4Cc4ccccc4)c3)c2cc1OC`, the IFI was 2.9%. The same measure for `CCC(C)CN1CCN(c2ccc(NC(=O)c3cccs3)cc2)C(C)C1` (stereo unspecified): 2.78%.

Compound `CC(=O)c1cc(N2CCOCC2)ccc1N` gave an IFI of 4.05%. The same measure for `CCOC(=O)Cn1ccc2c(NCc3ccccc3)nc(C)nc21`: 2.92%; for `COc1cc(NC(=O)Nc2ccc(Br)cc2C(=O)Nc2ccc(Br)cc2)cc(OC)c1OC`: 1.55%; for `CCOc1ccc2c(=NN=Cc3cccc(OC)c3)cc(C)[nH]c2c1`: 9.56%. Consider `COc1ccc2nc(C)cc(Nc3ccc(N4CCN(C)CC4)cc3)c2c1`, for which the IFI was 0.75%. The same measure for `OC[C@H](Nc1nc(C(Oc2ccccc2)c2ccccc2)nc2[nH]ncc12)c1ccccc1` (stereo partly specified): 5.41%; for `Fc1ccc2[nH]c(-c3cccc(-c4ccc(CN5CCN(c6cnccn6)CC5)cc4)c3)nc2c1`: 7.77%; for `CCOc1ccc(C(=O)Nc2cc(Br)c3c(c2)CNCC3)cc1Cl`: 6.38%. Compound `CN1CCC(NCc2ccc(-c3cccc(-c4nc5ccccc5[nH]4)c3)cc2)CC1` yielded an IFI of 4.76%. Compound `C/C=C/COc1ccc(-c2c(C)[nH]c(C)c(Cl)c2=O)cc1` returned an IFI of 0.91%. The same measure for `O=C(N[C@@H](Cc1ccccc1)C(=O)O)c1cc(-c2ccc(F)cc2)no1.O=C(N[C@@H](Cc1ccccc1)C(=O)O)c1conc1-c1ccc(F)cc1`: -0%; for `COc1cc(C(=O)NCCCN2CCN(c3cccc(Cl)c3)CC2)ccc1-c1nc2cc(Cl)c(F)cc2[nH]1`: 1.46%; for `COc1ccc(OCCCCON2C(=N)N=C(N)NC2(C)C)cc1`: 4.76%. `O=C(/C=C/c1ccc(Cl)cc1)NCCCCCN1CCN(C(=O)Nc2ccc(Cl)c(C(F)(F)F)c2)CC1`: the IFI came to 9.8%. The same measure for `CCCCCCC(C)c1cc(OCCN(CC)CC)c2c(c1)OC(C)(C)C=C2c1ccncc1` (stereo unspecified): 4.96%. Under `COc1ccc(Nc2nccc(NCC(O)c3cccc(C(F)(F)F)c3)n2)cc1` (stereo unspecified) stands 15.3%; under `COc1ccc2nccc([C@@H](O)CN3CCC(NCc4nc5c([N+](=O)[O-])cccc5[nH]4)CC3)c2c1`, 4.51%. Consider `CC(CN1CCN(C)CC1)C(=O)Nc1cccc(-c2cccc(-c3nc4cc(F)ccc4[nH]3)c2)c1` (stereo unspecified), for which the IFI was determined as 1.85%. Regarding `O=C1CC(C(=O)Nc2cccc(-c3cccc(-c4nc5ccccc5[nH]4)c3)c2)c2ccccc2N1` (stereo unspecified), the IFI amounted to 4.55%.

`O=C(/C=C/c1ccc(Cl)c(Cl)c1)NCCCCCN1CCC(NC(=O)c2ccc([N+](=O)[O-])cc2)CC1` came in with an IFI of 7.81%. `O=C(NCC1CCC(CNCCCc2ccccc2)CC1)Nc1ccc(Cl)c(Cl)c1` (stereo unspecified) gave an IFI of 5%. Under `CNc1ccc(CNCc2cccc(-c3ccc(-c4nc5cc(C(F)(F)F)ccc5[nH]4)cc3)c2)cc1` stands 18.8%.

`COc1ccc(-c2ccc(NC(=O)c3cccc(Cl)c3)cc2)cc1CN1CCN(C)CC1`: the IFI worked out at 7.84%. The same measure for `CCCn1c(=N)c(C(=O)NCCc2ccccc2)cc2c(=O)n3cccc(C)c3nc21`: 3.39%; for `CC(=O)Nc1ccc(CN2CCC(CNC(=O)c3cc(-c4cccc(Cl)c4)cs3)C2)cc1` (stereo unspecified): 8%; for `O=C(NCCN1CCC(NC(=O)c2ccc(-c3ccccn3)s2)CC1)c1ccc(Cl)c(Cl)c1`: 2.74%. With `COc1cccc(C2CCN(CCN3CCC(NC(=O)c4ccc(-c5ccc(C(F)(F)F)cc5)cc4)CC3)CC2)c1`, the IFI is 7.34%.

Source of the values: ChEMBL document CHEMBL1157539, “Thousands of chemical starting points for antimalarial lead identification” (Nature, 2010).
